The text below walks through data of US20250263470A1.

Assay [1] concerns the target recombinant HA derived from Victoria lineage strain B/BNE/08 (B/Brisbane/60/2008) (influenza B virus B/Brisbane/60/2008). In words: ELISA on coated recombinant HA, unpurified IgG. A general note: In an ELISA, binding on a coated surface is turned into a signal by an enzyme label.
For assay [2], the target named is recombinant HA derived from Yamagata lineage strain B/FLA/06 (B/Florida/4/2006) (influenza B virus B/Florida/4/2006). In words: ELISA on coated recombinant HA, unpurified IgG.

B1: FBC-39 FTS (antibody, V domains shown)
VH: [about 100 residues cut from this listing]DGPYSDDFRSGYAARYRYFGMDVWGQGTTVTVSS
VL: DIQMTQSPSSVSASVGDRVTITCRASQDISTWLAWYQQKPGKAPKLLIYAASSLQSGVPSRFSGSGSGTDFTLTISSLQPEDFATYYCQQANSFPPTFGQGTKLEIK
On to B1, for which the EC50 in assay [1] is greater than 1 µg/mL; in assay [2], 0.026 µg/mL.

In general, EC50 refers to the concentration needed to bring the measured effect to its halfway point.
